{"source": "PubChem BioAssay AID651820", "about": "(National Center for Advancing Translational Sciences (NCATS), 2012)", "note": "The campaign covered roughly 340,000 compounds. About 12,000 (3.5%) were called active. The inconclusive results got no clear call from the source; some entries with a clear call stand among them for comparison. Calls come from the whole dose curve; as a rule, active = well fitted inhibition curve with a large enough effect; inconclusive = small, poorly fitted or top-dose-only effect, or another doubt; inactive = no such curve, though single readings can be large or run the other way. Potencies of inconclusive entries are left out as doubtful fits. Potency is the fitted concentration of half-maximal effect; tags give direction and shape of the fitted curve.", "data": [{"assay": "qHTS Assay for Inhibitors of Hepatitis C Virus (HCV)", "conditions": "Huh7.5.1 HCVcc-Cre (HCVcc is cell-culture hepatitis C virus) infection, luciferase reporter, 44 h; series mostly up to 41.8 µM", "how_it_was_run": "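Seed cells (1,000/well) for 4 h; treat with compound and infect with HCVcc-Cre, moi about 0.5. Incubate 44 h, then detect luciferase activity.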", "values": [{"smiles": "COc1cc(C(=O)NC2CCCc3c2cnn3-c2ccccc2F)cc(OC)c1OC", "note": "(configuration not stated)", "Potency": "active: 8.91 µM"}, {"smiles": "O=C(O)CCNc1nc(-c2ccccc2)nc2ccccc12", "Potency": "inconclusive [inhibitor, single point]"}, {"smiles": "S=C(N/N=C/c1ccccc1)N1CCOCC1", "Potency": "inactive"}, {"smiles": "CC(=O)Nc1ncc(N=Nc2cccc(C(F)(F)F)c2)s1", "Potency": "inactive"}, {"smiles": "Cc1ccc(C)c(N=Nc2ccc(O)c3ncccc23)c1", "Potency": "active: 6.31 µM"}, {"smiles": "CC(C)OCCCNC(=O)CN1C(=O)/C(=C/c2ccccc2)Sc2ccccc21", "Potency": "inconclusive [inhibitor, single point]"}, {"smiles": "CCOC(=O)c1ccc(NC(=O)Nc2cc(C)on2)cc1", "Potency": "inconclusive [inhibitor, partial curve]"}, {"smiles": "O=C(Nc1cccc(F)c1)C1CCN(S(=O)(=O)c2cccc3nonc23)CC1", "Potency": "inactive"}, {"smiles": "CC1(C)CC(N2CCOCC2)=CC(=[N+]2CCOCC2)C1", "Potency": "inactive"}, {"smiles": "C(=N\\Nc1nc(-c2ccccn2)nc2ccccc12)/c1ccccc1", "Potency": "inconclusive [inhibitor, partial curve, poor fit]"}, {"smiles": "Cc1occc1C(=O)NC1CCCc2ccccc21", "note": "(configuration not stated)", "Potency": "inactive"}, {"smiles": "CCOC(=O)c1ccc(Oc2c(C)oc3cc(OS(C)(=O)=O)ccc3c2=O)cc1", "Potency": "inconclusive [inhibitor, partial curve, poor fit]"}, {"smiles": "Cc1sc(NC(=O)c2ccccc2)c(C#N)c1-c1ccccc1", "Potency": "inconclusive [inhibitor, partial curve]"}, {"smiles": "CC(=O)c1c(C)n(-c2ccccc2)c2ccc(OCC(N)=O)cc12", "Potency": "inconclusive [inhibitor, single point]"}, {"smiles": "COc1ccccc1N(CCC#N)C(=O)CSc1nc(-c2ccccc2)cn1N", "Potency": "inactive"}, {"smiles": "Cc1cc(C)c(C2=NOC3C4CCC(C4)C23)c(C)c1", "note": "(configuration not stated)", "Potency": "inactive"}, {"smiles": "COc1ccc(C(c2nnnn2Cc2ccccc2)N2CCN(c3ccccc3)CC2)cc1", "note": "(configuration not stated)", "Potency": "inconclusive [inhibitor, single point]"}, {"smiles": "CC(=O)Nc1cccc(-c2csc(Nc3ccccn3)n2)c1", "Potency": "active: 11.2 µM"}, {"smiles": "Oc1ccc(C2=NN(c3ccccc3)C(c3ccc(F)cc3)C2)cc1", "note": "(configuration not stated)", "Potency": "active: 10 µM"}, {"smiles": "COc1cc(C(C)=O)ccc1COc1ccc(C(=O)OCC(=O)NC(C)(C)C)cc1OC", "Potency": "inactive"}, {"smiles": "O=C(Nc1ccc2ccccc2n1)c1ccccc1Cl", "Potency": "inconclusive [inhibitor, partial curve, poor fit]"}, {"smiles": "O=[N+]([O-])c1ccccc1-c1nc(-c2ccc(Br)o2)no1", "Potency": "inconclusive [inhibitor, single point]"}, {"smiles": "Cc1cc(C)c2cc(CN(CCO)C(c3nnnn3Cc3ccc(F)cc3)C(C)C)c(=O)[nH]c2c1", "note": "(configuration not stated)", "Potency": "inconclusive [inhibitor, single point]"}, {"smiles": "NNC(=O)Cn1c(-c2ccccc2)cc(=O)n2ncnc12", "Potency": "inactive"}, {"smiles": "CCn1c2ccccc2c2cc(NC(=O)COC(=O)c3cc(S(N)(=O)=O)c(Cl)cc3Cl)ccc21", "Potency": "inconclusive [inhibitor, single point]"}, {"smiles": "CCCCNC(=S)Nc1ccc([N+](=O)[O-])cc1", "Potency": "inconclusive [inhibitor, single point]"}, {"smiles": "CC1(c2nnc(Cc3ccccc3)o2)CC(c2ccc([N+](=O)[O-])cc2)=NO1", "note": "(configuration not stated)", "Potency": "inconclusive [inhibitor, single point]"}, {"smiles": "O=C(CC(c1ccccc1)c1cc(Br)ccc1O)NCCN1CCOCC1", "note": "(configuration not stated)", "Potency": "inactive"}, {"smiles": "O=C(NC(=S)Nc1ccccc1N1CCCCC1)c1ccco1", "Potency": "inconclusive [inhibitor, single point]"}, {"smiles": "Cc1cc2c(cc1C)C(=O)C(Br)=C(N)C2=O", "Potency": "inconclusive [inhibitor, partial curve]"}, {"smiles": "O=C(CN(c1ccc2c(c1)OCCO2)S(=O)(=O)c1ccccc1)NCc1ccc(Cl)cc1", "Potency": "inconclusive [inhibitor, single point]"}, {"smiles": "CO/N=C1\\CCCc2c(C(=O)NN)sc(SC)c21", "Potency": "inactive"}, {"smiles": "CCN(c1ccccc1)S(=O)(=O)c1ccc(C(=O)N2CCN(c3ccccc3)CC2)cc1", "Potency": "inconclusive [inhibitor, partial curve]"}, {"smiles": "C=CCn1c(N)c(C(=O)NCC2CCCO2)c2nc3ccccc3nc21", "note": "(configuration not stated)", "Potency": "inconclusive [inhibitor, single point]"}, {"smiles": "COc1cc(C2=NOC(C(=O)NCc3ccco3)C2)cc(OC)c1OC", "note": "(configuration not stated)", "Potency": "inactive"}, {"smiles": "CCc1cccc(OCCCCNCCCOC)c1", "Potency": "inconclusive [inhibitor, partial curve]"}, {"smiles": "Cc1cc(C(=O)COc2ccccc2C(N)=O)c(C)n1CC1CCCO1", "note": "(configuration not stated)", "Potency": "active: 1.78 µM"}, {"smiles": "CN1CCN(S(=O)(=O)c2ccc(NC(=S)NC(=O)c3ccc(Cl)cc3)cc2)CC1", "Potency": "inconclusive [inhibitor, partial curve, poor fit]"}, {"smiles": "COc1cc(-c2noc(C)c2/C=C/c2ccc(OC(C)=O)cc2)cc(OC)c1OC", "Potency": "inconclusive [inhibitor, full curve]"}, {"smiles": "COc1ccc(CCNc2ccc(S(=O)(=O)N3CCN(C)CC3)cc2[N+](=O)[O-])cc1", "Potency": "inconclusive [inhibitor, single point]"}, {"smiles": "CC1=C(C#N)C2C(/C1=N/O)C2(C)C", "note": "(configuration not stated)", "Potency": "inconclusive [inhibitor, single point]"}, {"smiles": "CC(C)(C)c1ccc(Cn2ccc(-c3ccc4c(c3)OCO4)n2)cc1", "Potency": "inactive"}, {"smiles": "COc1ccc(N(C(=O)CSCC(=O)Nc2cc(C)on2)C(C(=O)NC2CCCCC2)c2ccc(O)c(O)c2)cc1", "note": "(configuration not stated)", "Potency": "inactive"}, {"smiles": "Cc1ccccc1NC(=O)CSc1nc(=O)n(CCN2CCOCC2)c2c1CCCC2", "Potency": "inconclusive [inhibitor, single point]"}, {"smiles": "O=C(CN1CCN(c2nc(-c3ccc(F)cc3)cs2)CC1)NCc1ccc2c(c1)OCO2", "Potency": "inconclusive [inhibitor, partial curve]"}, {"smiles": "CCOC(=O)c1ccc(NC2c3ccccc3C(=O)N2c2cccnc2)cc1", "note": "(configuration not stated)", "Potency": "inactive"}, {"smiles": "CCNC(=O)NCc1c(C)c(C)n(Cc2ccccc2)c1-n1cccc1", "Potency": "inconclusive [inhibitor, partial curve, poor fit]"}, {"smiles": "CS(=O)(=O)c1ccccc1-c1nnc(NC(=O)COc2ccc(Cl)cc2)o1", "Potency": "inconclusive [inhibitor, single point]"}, {"smiles": "COC(=O)C1=C(C)NC(=O)/C1=C\\c1cccs1", "Potency": "inconclusive [inhibitor, full curve]"}, {"smiles": "Cc1cc(NC(=O)c2cccc(S(=O)(=O)N3CCOCC3)c2)c2ccccc2n1", "Potency": "inconclusive [inhibitor, partial curve, poor fit]"}, {"smiles": "CCC(C)n1c(SCC(=O)Nc2ccc3[nH]c(=O)[nH]c3c2)nc2ccccc2c1=O", "note": "(configuration not stated)", "Potency": "inconclusive [inhibitor, single point]"}, {"smiles": "Cc1ccc(N2CC(NS(=O)(=O)c3cccs3)CC2=O)cc1C", "note": "(configuration not stated)", "Potency": "inactive"}, {"smiles": "CCOP(=O)(c1ccc(N(C)C)cc1)C(O)c1ccccc1", "note": "(configuration not stated)", "Potency": "inactive"}, {"smiles": "CN(c1ccc(C(=O)NCc2ccccn2)cc1)S(=O)(=O)c1ccc(Cl)cc1", "Potency": "inactive"}, {"smiles": "O=[N+]([O-])c1cccc(-c2nc(NCc3ccccc3)c3ccccc3n2)c1", "Potency": "inconclusive [inhibitor, full curve, poor fit]"}, {"smiles": "C/C=C(/C)C(=O)O[C@@H]1c2cc(OC)c(OC)c(OC)c2-c2c(cc3c(c2OC)OCO3)C[C@H](C)[C@]1(C)O", "Potency": "inactive"}, {"smiles": "CC1=C(C(=O)Nc2ccccc2F)C(c2ccsc2)C2=C(CC(c3ccccc3)CC2=O)N1", "note": "(configuration not stated)", "Potency": "inconclusive [inhibitor, single point]"}, {"smiles": "Oc1ccc(/C=N/Nc2cccc3cccnc23)c(O)c1", "Potency": "inconclusive [inhibitor, full curve]"}, {"smiles": "O=C(Nc1ccc(F)cc1)c1ccc2nsnc2c1", "Potency": "inconclusive [inhibitor, single point]"}, {"smiles": "CCOc1ccc(NC(=O)CN(c2ccc(OC)cc2)S(=O)(=O)c2cccs2)cc1", "Potency": "inactive"}, {"smiles": "COc1cc(/C=C2/SC(=S)N(Cc3ccccc3)C2=O)ccc1O", "Potency": "inactive"}, {"smiles": "COc1ccc(CNc2ncnc3ccccc23)cc1", "Potency": "active: 3.16 µM"}, {"smiles": "COc1ccc(N(CC(=O)Nc2ccccc2C(N)=O)S(=O)(=O)c2ccc(C)c([N+](=O)[O-])c2)cc1", "Potency": "inactive"}, {"smiles": "COc1ccc(NC(=O)c2onc(C)c2Cl)cc1OC", "Potency": "inactive"}, {"smiles": "COc1ccc(Cl)cc1NS(=O)(=O)c1cccc(C(=O)NCC2(N(C)C)CCCCC2)c1", "Potency": "inconclusive [inhibitor, single point]"}, {"smiles": "CCOC(=O)COc1ccccc1/C=C\\[N+](=O)[O-]", "Potency": "inconclusive [inhibitor, single point]"}, {"smiles": "CC1CC(C)(C)CC2(C1)NC(=O)N(CC(=O)Nc1nccs1)C2=O", "note": "(configuration not stated)", "Potency": "inactive"}, {"smiles": "COc1cc(C(=O)N/N=C(\\c2ccccc2)c2ccccn2)cc(OC)c1OC", "Potency": "inconclusive [inhibitor, full curve]"}, {"smiles": "COc1ccc2nc(N=Nc3ccc(O)c4ccccc34)sc2c1", "Potency": "inconclusive [inhibitor, partial curve]"}, {"smiles": "Cc1c(NS(=O)(=O)c2cccs2)cccc1-c1nc2cccnc2s1", "Potency": "inconclusive [inhibitor, single point]"}, {"smiles": "Cc1cccc([C@@H]2[C@@H]3C(=O)N(Cc4ccccc4)C(=O)[C@@H]3[C@]3(Cc4ccc(Cl)cc4)C(=O)N(c4ccccc4)C(=O)N23)c1", "Potency": "inactive"}, {"smiles": "CC(C)C[C@H](NC(=O)c1nc[nH]c1C(=O)NCc1ccccc1)C(=O)OC(C)(C)C", "Potency": "inactive"}]}]}
